# Measurements: PubChem BioAssay AID1745849 (National Center for Advancing Translational Sciences (NCATS), 2022)
# About 320 (15%) of roughly 2,100 compounds were called active. This list was built around the results that the source calls inconclusive (neither active nor inactive); the mix of calls is not that of the screen. Calls come from the whole dose curve; as a rule, active = well fitted cell-killing curve with a large enough effect; inconclusive = small, poorly fitted or top-dose-only effect, or effect the other way; inactive = flat fitted curve, though single readings scatter. Potencies of inconclusive entries are doubtful fits and often do not repeat.
# Experiment: Viability Counterscreen for CMV-Luciferase Assay of Inhibitors of ATXN expression; note: nearly all actives have a fitted effect of over 55% in size
# Settings: HEK-293 CMV-luciferase cells viability, protease fluorescence, 24 h
# Method in brief: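 Luminescence read-out: SteadyGlo added, 5 min RT, measured in CMV-luciferase HEK-293 cells after 24 hr compound treatment (several concentrations). Viability counterscreen: 25 uM Gly-Phe-7-amino-4-trifluoromethylcoumarin, 30 min at 37 degree C, fluorescence ex 405/em 540 nm.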
# Potency is the fitted concentration of half-maximal effect; tags give direction and shape of the fitted curve.
row,Compound,Potency
1,COc1ccc2c(c1)c[n+](C)c1c3cc(OC)c(OC)cc3ccc21,"inconclusive: 25.1 µM [cytotoxic, partial curve, poor fit]"
2,N#Cc1cc2c(=O)n3ccccc3nc2n(-c2ccccc2Cl)c1=O,"inconclusive: 31.6 µM [rising, partial curve]"
3,COc1cc(/C=C/c2ccc3cccc(O)c3n2)cc(OC)c1OC,inactive
4,O=C(N/N=C/c1cc(Br)cc(Cl)c1O)c1ccc2c(c1)OCO2,"inconclusive: 39.8 µM [rising, single point]"
5,NCCCCCc1nnc(SCc2ccccc2Cl)o1,"inconclusive: 3.16 µM [cytotoxic, partial curve]"
6,O=C(Nc1nonc1-c1ccc(Cl)cc1)c1ccccc1,inactive
7,CCOc1ccc(-c2c[n+]3c(n2-c2ccccc2)CCCCC3)cc1,inactive
8,CCOc1ccc(CCNC(=O)c2ccc(OCc3c(C)noc3C)cc2)cc1OCC,inactive
9,CSc1sc(-c2nnc(SCC(=O)Nc3ccc(Cl)cc3)n2C)c2c1C=CCC2,inactive
10,COc1ccc(CCNC2=C(Cl)C(=O)N(CCc3ccccc3)C2=O)cc1OC,"inconclusive: 3.16 µM [rising, single point]"
11,CCc1sc(C(=O)Nc2nc(-c3ccccn3)cs2)cc1C,active: 11.2 µM
12,Cc1ccc(-n2cccn2)c(CN2CCCC(C(=O)c3ccc4c(c3)OCO4)C2)c1 (centres undefined),inactive
13,COc1ccc(C)cc1NC(=O)C(Sc1nnc(-c2ccncc2)n1-c1ccc(Cl)cc1)c1ccccc1 (centres undefined),"inconclusive: 8.91 µM [cytotoxic, single point]"
14,CC(C)(C)c1ccc(OCCCC(=O)NNC(=O)c2ccccc2O)cc1,active: 25.1 µM
15,O=S(=O)([N-]c1nc2ccccc2nc1-[n+]1ccc(Cc2ccccc2)cc1)c1ccc(Br)s1,active: 3.55 µM
16,Cc1ccc2nc(N(CCCN(C)C)C(=O)c3ccc(S(=O)(=O)N4CCCCCC4)cc3)sc2c1,inactive
17,O=S(=O)(c1ccc(Cl)cc1)N1CCN(Cc2ccc(O)c3ncccc23)CC1,"inconclusive: 3.55 µM [cytotoxic, full curve]"
18,O=C(NCc1ccco1)/C(=C/c1cccc(C(F)(F)F)c1)c1nc2ccccc2[nH]1,"inconclusive: 2.82 µM [cytotoxic, partial curve, poor fit]"
19,CS(=O)(=O)c1ccc(Nc2nc(C(N)Cc3ccc(Cl)cc3)cs2)cc1 (centres undefined),"inconclusive: 12.6 µM [cytotoxic, partial curve, poor fit]"
20,Cc1ccc(C(C[N+](=O)[O-])Sc2ccc(N)cc2)cc1 (centres undefined),"inconclusive: 5.62 µM [cytotoxic, single point]"
21,COc1c(C)cccc1C(=O)Nc1ccc(N2CCN(C(=O)c3ccccc3C)CC2)cc1,active: 31.6 µM
22,Cc1ccc(OCC(O)Cn2c(=N)n(CCN3CCCCC3)c3ccccc32)cc1 (centres undefined),inactive
23,O=C(Nc1nc2cc(Cl)ccc2s1)C1CCCN(S(=O)(=O)c2cccc3cccnc23)C1 (centres undefined),"inconclusive: 22.4 µM [cytotoxic, single point]"

row,Compound,Potency
1,CN(C)CCOc1ccc(-c2c(-c3ccccc3)sc3ccccc23)cc1,"inconclusive: 25.1 µM [cytotoxic, partial curve, poor fit]"
2,Nc1ncn([C@@H]2O[C@H](CO)[C@@H](O)[C@H]2O)c(=O)n1,active: 6.31 µM
3,CC(=O)NC(c1cccs1)c1cc([N+](=O)[O-])c2cccnc2c1O (centres undefined),active: 11.2 µM
4,O=C(Nc1cccc(S(=O)(=O)C(F)F)c1)c1ccc(Cl)c(S(=O)(=O)N2CCOCC2)c1,"inconclusive: 31.6 µM [cytotoxic, single point]"
5,COc1ccc2nc(C)cc(NCc3cccc(C(F)(F)F)c3)c2c1,"inconclusive: 31.6 µM [cytotoxic, single point]"
6,OC[C@@H]1[C@@H](c2ccc(F)cc2)C(c2cccc(Cl)c2)=NN1c1ccccc1,"inconclusive: 31.6 µM [rising, partial curve]"
7,CCN1CCN(CCNC(=O)c2ccc(/C=C3/Sc4ccccc4N(Cc4cccc(C)c4)C3=O)cc2)CC1,inactive
8,COc1cc(C#Cc2c(-c3cncn3C)n(C)c3ccc(-c4cnc(OC)nc4)cc23)cc(OC)c1,"inconclusive: 3.55 µM [cytotoxic, single point]"
9,CCCNC(=O)c1ccc2c(=O)c(O)c(-c3ccc(F)cc3)[nH]c2c1,"inconclusive: 25.1 µM [rising, single point]"
10,O=C(Nc1ccccc1C(=O)Nc1nnc(C(F)(F)F)s1)c1ccccc1,"inconclusive: 1.78 µM [cytotoxic, full curve]"
11,COc1cc(/C=C/C(O)=C/C(=O)/C=C/c2ccc(O)cc2)ccc1O,inactive
12,O=C(Nc1nc(-c2ccccn2)cs1)Nc1ccc(F)cc1F,active: 11.2 µM
13,CCN(CC)c1ccc2c(Cl)c(Br)c(=O)oc2c1,"inconclusive: 4.47 µM [rising, partial curve]"
14,O=C(Nc1ccc2c(c1)CCC2)C1CCN(c2c3c(nc4ncnn24)CCC3)CC1,inactive
15,Cc1ccnc(NC(c2ccccc2)c2ccc3cccnc3c2O)c1 (centres undefined),inactive
16,Cc1nc(N2CCN(Cc3ccc4c(c3)OCO4)CC2)c2oc3ccccc3c2n1,"inconclusive: 1.12 µM [cytotoxic, full curve, poor fit]"
17,CCOc1cc(/C=C2\SC(=N)N(c3nccs3)C2=O)ccc1OCCN1CCOCC1,"inconclusive: 15.8 µM [cytotoxic, partial curve, poor fit]"
18,CC(C)(O)C#Cc1ccc([C@@H]2C[C@H]3CN(c4ccccc4)C(=O)[C@]34CCCN24)s1,active: 11.2 µM
19,CCn1cc(C(=O)NCc2ccccc2)c(=O)c2cc(F)c(N3CCN(C(=O)c4ccco4)CC3)cc21,"inconclusive: 25.1 µM [cytotoxic, single point]"
20,COc1ccc(-c2cc(CNc3nc(NC(C)C)nc4cc(-c5ccccc5)sc34)on2)cc1,"inconclusive: 31.6 µM [cytotoxic, single point]"
21,CCc1nc2ccc(C(=O)N(C)Cc3ccccc3)cn2c1N(C)Cc1ccc(OC)cc1,inactive
22,COc1cc2c(O)c3c(c(-c4ccc5c(c4)OCO5)c2cc1OC)C(=O)OC3,inactive
23,Cc1ccc(NC(=O)CNC(=O)c2cccc(C)c2)nc1,"inconclusive: 22.4 µM [cytotoxic, single point]"

row,Compound,Potency
1,CCc1ccc(/C=C/C(=O)c2cc(Br)ccc(=O)c2O)cc1,active: 28.2 µM
2,CCn1c2ccccc2c2cc(/C=N/NC(=O)c3ccncc3)ccc21,"inconclusive: 3.98 µM [cytotoxic, partial curve, poor fit]"
3,Cc1ccc(CN2CCC(c3cc(-c4ccc(Cl)cc4)n[nH]3)CC2)cc1,"inconclusive: 39.8 µM [cytotoxic, single point]"
4,CCN1CCS/C1=C\C=C\C1=[N+](CC)CCS1,active: 15.8 µM
5,Cc1ccccc1C(=O)N/N=C/c1ccc([N+](=O)[O-])s1,active: 22.4 µM
6,COc1cc(/C=C2\COC/C(=C\c3cc(OC)c(OC)c(OC)c3)C2=O)cc(OC)c1OC,active: 1.58 µM
7,NC(=O)Cn1c(=O)n(CCc2ccccc2)c(=O)c2c3c(sc21)CCCC3,"inconclusive: 31.6 µM [cytotoxic, single point]"
8,CCCCN(C)c1nc(-c2ccco2)c2c(c1C#N)CC(C)(C)OC2,"inconclusive: 22.4 µM [rising, partial curve]"
9,COc1ccc(C(NC(C)=O)c2cc(Cl)c3cccnc3c2O)cc1 (centres undefined),"inconclusive: 2 µM [cytotoxic, full curve, poor fit]"
10,O=C(N/N=C/c1cc([N+](=O)[O-])ccc1O)c1cccc(N2CCCC2=O)c1,"inconclusive: 11.2 µM [cytotoxic, partial curve, poor fit]"
11,Cc1ccc2c(Cl)cc(Cl)c(OCC(=O)Nc3cc(S(=O)(=O)N(C)C)ccc3C)c2n1,inactive
12,CC(C)(C)OC(=O)NNc1c2ccccc2nc2ccccc12,"inconclusive: 39.8 µM [rising, single point]"
13,COC(=O)c1ccc(C(=O)Nc2cc(Cl)ccc2Cl)cc1NC(=O)c1ccc(N(C)C)cc1,inactive
14,O=C(NNC1=Nc2ccccc2SC1)c1ccc(Cl)cc1,"inconclusive: 3.16 µM [cytotoxic, partial curve, poor fit]"
15,NC(c1csc(Nc2nccc(C(F)(F)F)n2)n1)C1CCCCC1 (centres undefined),"inconclusive: 1.78 µM [cytotoxic, partial curve, poor fit]"
16,Brc1cnc2nc(SCc3nc4ccccc4[nH]3)[nH]c2c1,inactive
17,Cc1ccc(-c2csc(N3CCN(c4cc5c(cc4Cl)nc(-c4ccncc4)n5CCOCCO)CC3)n2)cc1,inactive
18,O=C(Nc1cccc(Br)c1)c1cccc(OC(=S)N2CCOCC2)c1,"inconclusive: 39.8 µM [cytotoxic, single point]"
19,COc1cc([N+](=O)[O-])cc(/C=N/NC(=O)C(C)Nc2cccc3ccccc23)c1O (centres undefined),"inconclusive: 3.16 µM [cytotoxic, partial curve]"
20,O=[N+]([O-])c1ccc(O)c(/C=N/Nc2ncnc3c2cnn3-c2ccccc2)c1,"inconclusive: 5.62 µM [cytotoxic, partial curve, poor fit]"
21,CN1CCN(c2ccc(-c3cc(NC=O)c4ncc(-c5ccc(F)c(Cl)c5)n4c3)cc2)CC1,inactive
22,CCCC(=O)N1CCCC(c2cc(C(=O)Nc3ccccc3)no2)C1 (centres undefined),inactive
23,O=C(CSCC(=O)Nc1ccccc1)N/N=C/c1c(O)ccc2ccccc12,"inconclusive: 0.501 µM [cytotoxic, full curve, poor fit]"
